This is an account of results in PMC8491413.

By UniProt entry, the sequences of proteins in these tests, tags left out. Where a name states a change or a piece, a line headed by the entry shows the natural chain unless it says otherwise. Residues count along the entry.
UniProt P03496: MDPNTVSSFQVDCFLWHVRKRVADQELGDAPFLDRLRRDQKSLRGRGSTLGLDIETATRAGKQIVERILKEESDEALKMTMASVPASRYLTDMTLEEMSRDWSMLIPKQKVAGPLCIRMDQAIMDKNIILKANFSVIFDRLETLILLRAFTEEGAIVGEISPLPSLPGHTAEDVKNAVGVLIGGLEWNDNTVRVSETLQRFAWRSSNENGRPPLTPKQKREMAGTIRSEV
NS1-RBD-Myc-His (amino acids 1-73) (influenza A/PR/8 (PR8) strain): residues 1-73 of P03496
UniProt Q13114: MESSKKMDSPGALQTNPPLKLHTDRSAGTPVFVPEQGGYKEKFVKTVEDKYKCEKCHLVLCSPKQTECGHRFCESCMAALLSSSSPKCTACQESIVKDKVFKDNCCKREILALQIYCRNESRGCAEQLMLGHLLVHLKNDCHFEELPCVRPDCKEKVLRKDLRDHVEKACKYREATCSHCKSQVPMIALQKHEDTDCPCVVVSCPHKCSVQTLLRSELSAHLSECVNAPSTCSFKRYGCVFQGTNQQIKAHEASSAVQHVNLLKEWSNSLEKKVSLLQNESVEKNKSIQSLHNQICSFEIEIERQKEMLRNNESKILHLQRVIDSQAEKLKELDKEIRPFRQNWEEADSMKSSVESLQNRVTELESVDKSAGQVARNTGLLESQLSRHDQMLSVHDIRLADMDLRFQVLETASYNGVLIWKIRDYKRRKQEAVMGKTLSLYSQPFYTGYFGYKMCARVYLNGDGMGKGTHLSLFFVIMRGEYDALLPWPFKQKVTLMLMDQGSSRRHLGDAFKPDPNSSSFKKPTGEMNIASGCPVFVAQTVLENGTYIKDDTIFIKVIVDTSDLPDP
UniProt Q7Z434: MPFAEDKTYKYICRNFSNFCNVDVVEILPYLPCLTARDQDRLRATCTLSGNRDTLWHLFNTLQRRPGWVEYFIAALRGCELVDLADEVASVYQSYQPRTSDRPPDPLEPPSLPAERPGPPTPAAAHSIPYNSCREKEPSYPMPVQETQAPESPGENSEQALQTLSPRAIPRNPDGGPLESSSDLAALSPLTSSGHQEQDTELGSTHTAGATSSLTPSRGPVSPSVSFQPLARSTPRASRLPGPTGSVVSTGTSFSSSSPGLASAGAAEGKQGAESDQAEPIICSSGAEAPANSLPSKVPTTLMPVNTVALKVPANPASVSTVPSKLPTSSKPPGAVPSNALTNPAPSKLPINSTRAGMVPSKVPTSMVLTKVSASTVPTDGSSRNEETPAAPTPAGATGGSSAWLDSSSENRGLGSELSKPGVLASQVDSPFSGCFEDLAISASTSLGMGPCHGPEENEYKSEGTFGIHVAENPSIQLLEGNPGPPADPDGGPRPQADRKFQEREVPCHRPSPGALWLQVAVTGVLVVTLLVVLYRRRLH

Assay [1] concerns the target NS1-Myc-His (nonstructural protein 1 of influenza A/PR/8, full length) (influenza A/PR/8 (PR8) strain) (UniProt P03496). Briefly: co-IP.
In assay [2] the target is NS1-RBD-Myc-His (amino acids 1-73) (influenza A/PR/8 (PR8) strain) (UniProt P03496). As to the kind of experiment: co-IP.

These are yes or no findings as the source states them, for the method shown. In cells and extracts the contact can be indirect. Some binding calls cover weakened binding; strength is not graded here.

On to “Flag-TRAF3Δ274-568 (from UniProt Q13114 1-273) (domain or fragment)”, for which the binding result in assay [1] was “no binding”.
As for “Flag-TRAF3Δ1-399 (from UniProt Q13114 400-568) (domain or fragment)”, the binding entry in assay [1] was “binds”.
Take “Flag-TRAF3Δ1-258 (from UniProt Q13114 259-568) (domain or fragment)”: the binding entry in assay [1] is “binds”.
As to His-MAVS (from UniProt Q7Z434 1-540), the binding entry in assay [1] and in assay [2] was “binds” in each case.
